Data reported in the supplement of paper PMC11876631.
± gives the standard deviation of the averaged measurements. Laboratory Escherichia coli strains with one amino-acid change in an essential protein, pooled on minimal glucose agar with carbenicillin or gentamicin at twice the control MIC (plus kanamycin and chloramphenicol for the plasmids), 48 h. Fold change of barcode share against drug-free plates; higher = less susceptible. Active = above 20 in both replicates (the paper's putatively resistant). '<' = one read or none on drug, '>' = one read or none on a drug-free plate. Shares are relative, so most strains fall below 1 when a few take over. Listed are strains with at least 15 reads on both drug-free plates, and hits; most hits rest on fewer reference reads. Replicate rank correlation about 0.5. Edits are read from barcodes.

B1: leuD V13P (protein)
chain: MAEKFIKHTGLVPPLDAANVDTDAIIPKQFLQKVTRTGFGAHLFNDWRFLDEKGQQPNPDFVLNFPQYQGASILLARENFGCGSSREHAPWALTDYGFKVVIAPSFADIFYGNSFNNQLLPVKLSDAEVDELFALVKANPGIHFDVDLEAQEVKAGEKTYRFTIDAFRRHCMMNGLDSIGLTLQHDDAIAAYEAKQPAFMN
B2: leuD L63A (protein)
chain: MAEKFIKHTGLVVPLDAANVDTDAIIPKQFLQKVTRTGFGAHLFNDWRFLDEKGQQPNPDFVANFPQYQGASILLARENFGCGSSREHAPWALTDYGFKVVIAPSFADIFYGNSFNNQLLPVKLSDAEVDELFALVKANPGIHFDVDLEAQEVKAGEKTYRFTIDAFRRHCMMNGLDSIGLTLQHDDAIAAYEAKQPAFMN
B3: leuD L63W (protein)
chain: MAEKFIKHTGLVVPLDAANVDTDAIIPKQFLQKVTRTGFGAHLFNDWRFLDEKGQQPNPDFVWNFPQYQGASILLARENFGCGSSREHAPWALTDYGFKVVIAPSFADIFYGNSFNNQLLPVKLSDAEVDELFALVKANPGIHFDVDLEAQEVKAGEKTYRFTIDAFRRHCMMNGLDSIGLTLQHDDAIAAYEAKQPAFMN
B4: leuD L63Q (protein)
chain: MAEKFIKHTGLVVPLDAANVDTDAIIPKQFLQKVTRTGFGAHLFNDWRFLDEKGQQPNPDFVQNFPQYQGASILLARENFGCGSSREHAPWALTDYGFKVVIAPSFADIFYGNSFNNQLLPVKLSDAEVDELFALVKANPGIHFDVDLEAQEVKAGEKTYRFTIDAFRRHCMMNGLDSIGLTLQHDDAIAAYEAKQPAFMN
B5: leuD L63P (protein)
chain: MAEKFIKHTGLVVPLDAANVDTDAIIPKQFLQKVTRTGFGAHLFNDWRFLDEKGQQPNPDFVPNFPQYQGASILLARENFGCGSSREHAPWALTDYGFKVVIAPSFADIFYGNSFNNQLLPVKLSDAEVDELFALVKANPGIHFDVDLEAQEVKAGEKTYRFTIDAFRRHCMMNGLDSIGLTLQHDDAIAAYEAKQPAFMN
B6: leuD L74A (protein)
chain: MAEKFIKHTGLVVPLDAANVDTDAIIPKQFLQKVTRTGFGAHLFNDWRFLDEKGQQPNPDFVLNFPQYQGASIALARENFGCGSSREHAPWALTDYGFKVVIAPSFADIFYGNSFNNQLLPVKLSDAEVDELFALVKANPGIHFDVDLEAQEVKAGEKTYRFTIDAFRRHCMMNGLDSIGLTLQHDDAIAAYEAKQPAFMN
B7: leuD L74Q (protein)
chain: MAEKFIKHTGLVVPLDAANVDTDAIIPKQFLQKVTRTGFGAHLFNDWRFLDEKGQQPNPDFVLNFPQYQGASIQLARENFGCGSSREHAPWALTDYGFKVVIAPSFADIFYGNSFNNQLLPVKLSDAEVDELFALVKANPGIHFDVDLEAQEVKAGEKTYRFTIDAFRRHCMMNGLDSIGLTLQHDDAIAAYEAKQPAFMN
B8: leuD I25A (protein)
chain: MAEKFIKHTGLVVPLDAANVDTDAAIPKQFLQKVTRTGFGAHLFNDWRFLDEKGQQPNPDFVLNFPQYQGASILLARENFGCGSSREHAPWALTDYGFKVVIAPSFADIFYGNSFNNQLLPVKLSDAEVDELFALVKANPGIHFDVDLEAQEVKAGEKTYRFTIDAFRRHCMMNGLDSIGLTLQHDDAIAAYEAKQPAFMN
B9: leuD I25Q (protein)
chain: MAEKFIKHTGLVVPLDAANVDTDAQIPKQFLQKVTRTGFGAHLFNDWRFLDEKGQQPNPDFVLNFPQYQGASILLARENFGCGSSREHAPWALTDYGFKVVIAPSFADIFYGNSFNNQLLPVKLSDAEVDELFALVKANPGIHFDVDLEAQEVKAGEKTYRFTIDAFRRHCMMNGLDSIGLTLQHDDAIAAYEAKQPAFMN
B10: leuD I73A (protein)
chain: MAEKFIKHTGLVVPLDAANVDTDAIIPKQFLQKVTRTGFGAHLFNDWRFLDEKGQQPNPDFVLNFPQYQGASALLARENFGCGSSREHAPWALTDYGFKVVIAPSFADIFYGNSFNNQLLPVKLSDAEVDELFALVKANPGIHFDVDLEAQEVKAGEKTYRFTIDAFRRHCMMNGLDSIGLTLQHDDAIAAYEAKQPAFMN
B11: leuD I73W (protein)
chain: MAEKFIKHTGLVVPLDAANVDTDAIIPKQFLQKVTRTGFGAHLFNDWRFLDEKGQQPNPDFVLNFPQYQGASWLLARENFGCGSSREHAPWALTDYGFKVVIAPSFADIFYGNSFNNQLLPVKLSDAEVDELFALVKANPGIHFDVDLEAQEVKAGEKTYRFTIDAFRRHCMMNGLDSIGLTLQHDDAIAAYEAKQPAFMN
B12: leuD I73Q (protein)
chain: MAEKFIKHTGLVVPLDAANVDTDAIIPKQFLQKVTRTGFGAHLFNDWRFLDEKGQQPNPDFVLNFPQYQGASQLLARENFGCGSSREHAPWALTDYGFKVVIAPSFADIFYGNSFNNQLLPVKLSDAEVDELFALVKANPGIHFDVDLEAQEVKAGEKTYRFTIDAFRRHCMMNGLDSIGLTLQHDDAIAAYEAKQPAFMN
B13: leuD F144A (protein)
chain: MAEKFIKHTGLVVPLDAANVDTDAIIPKQFLQKVTRTGFGAHLFNDWRFLDEKGQQPNPDFVLNFPQYQGASILLARENFGCGSSREHAPWALTDYGFKVVIAPSFADIFYGNSFNNQLLPVKLSDAEVDELFALVKANPGIHADVDLEAQEVKAGEKTYRFTIDAFRRHCMMNGLDSIGLTLQHDDAIAAYEAKQPAFMN
B14: leuD F144W (protein)
chain: MAEKFIKHTGLVVPLDAANVDTDAIIPKQFLQKVTRTGFGAHLFNDWRFLDEKGQQPNPDFVLNFPQYQGASILLARENFGCGSSREHAPWALTDYGFKVVIAPSFADIFYGNSFNNQLLPVKLSDAEVDELFALVKANPGIHWDVDLEAQEVKAGEKTYRFTIDAFRRHCMMNGLDSIGLTLQHDDAIAAYEAKQPAFMN
B15: leuD F144Q (protein)
chain: MAEKFIKHTGLVVPLDAANVDTDAIIPKQFLQKVTRTGFGAHLFNDWRFLDEKGQQPNPDFVLNFPQYQGASILLARENFGCGSSREHAPWALTDYGFKVVIAPSFADIFYGNSFNNQLLPVKLSDAEVDELFALVKANPGIHQDVDLEAQEVKAGEKTYRFTIDAFRRHCMMNGLDSIGLTLQHDDAIAAYEAKQPAFMN
B16: leuD F144P (protein)
chain: MAEKFIKHTGLVVPLDAANVDTDAIIPKQFLQKVTRTGFGAHLFNDWRFLDEKGQQPNPDFVLNFPQYQGASILLARENFGCGSSREHAPWALTDYGFKVVIAPSFADIFYGNSFNNQLLPVKLSDAEVDELFALVKANPGIHPDVDLEAQEVKAGEKTYRFTIDAFRRHCMMNGLDSIGLTLQHDDAIAAYEAKQPAFMN
B17: aroB I125A (protein)
chain: MERIVVTLGERSYPITIASGLFNEPASFLPLKSGEQVMLVTNETLAPLYLDKVRGVLEQAGVNVDSVILPDGEQYKSLAVLDTVFTALLQKPHGRDTTLVALGGGVVGDLTGFAAASYQRGVRFAQVPTTLLSQVDSSVGGKTAVNHPLGKNMIGAFYQPASVVVDLDCLKTLPPRELASGLAEVIKYGIILDGAFFNWLEENLDALLRLDGPAMAYCIRRCCELKAEVVAADERETGLRALLNLGHTFGHAIEAEMGYGNWLHGEAVAAGMVMAARTSERLGQFSSAETQRIITLLKRAGLPVNGPREMSAQAYLPHMLRDKKVLAGEMRLILPLAIGKSEVRSGVSHELVLNAIADCQSA
B18: aroB I125W (protein)
chain: MERIVVTLGERSYPITIASGLFNEPASFLPLKSGEQVMLVTNETLAPLYLDKVRGVLEQAGVNVDSVILPDGEQYKSLAVLDTVFTALLQKPHGRDTTLVALGGGVVGDLTGFAAASYQRGVRFWQVPTTLLSQVDSSVGGKTAVNHPLGKNMIGAFYQPASVVVDLDCLKTLPPRELASGLAEVIKYGIILDGAFFNWLEENLDALLRLDGPAMAYCIRRCCELKAEVVAADERETGLRALLNLGHTFGHAIEAEMGYGNWLHGEAVAAGMVMAARTSERLGQFSSAETQRIITLLKRAGLPVNGPREMSAQAYLPHMLRDKKVLAGEMRLILPLAIGKSEVRSGVSHELVLNAIADCQSA

What follows are proteins tested against Escherichia coli (laboratory strain) (assay: barcode share on antibiotic plates over drug-free plates; higher = less susceptible). Settings: antibiotic: carbenicillin; 2× MIC (3.1 µg/mL).
Method: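 A pool of E. coli strains, each edited to carry one amino-acid change in an essential protein, was grown for 48 h on minimal glucose agar with or without antibiotic; strain barcodes were sequenced; mean of two replicates.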

Row | Protein | fold change of barcode share
1 | B1 | 0.245 ± 0.093
2 | B2 | 0.531 ± 0.094
3 | B3 | 0.749 ± 0.41
4 | B4 | 0.332 ± 0.029
5 | B5 | 0.369 ± 0.12
6 | B6 | 0.528 ± 0.3
7 | B7 | 0.428 ± 0.24
8 | B8 | 0.771 ± 0.018
9 | B9 | 0.781 ± 0.46
10 | B10 | 0.402 ± 0.092
11 | B11 | 0.519 ± 0.24
12 | B12 | 0.734 ± 0.4
13 | B13 | 0.604 ± 0.045
14 | B14 | 0.57 ± 0.042
15 | B15 | 0.923 ± 0.27
16 | B16 | 1.04 ± 0.28
17 | B17 | > 24.6 [active]
18 | B18 | > 34.1 [active]

Same assay, conditions: antibiotic: gentamicin; 2× MIC (MIC 0.45 µg/mL)

Row | Protein | fold change of barcode share
19 | B1 | 0.0246 ± 0.015
20 | B2 | 0.257 ± 0.25
21 | B3 | 0.0325 ± 0.023
22 | B4 | 0.215 ± 0.23
23 | B5 | 0.193 ± 0.15
24 | B6 | 0.0163 ± 0.012
25 | B7 | < 0.0156
26 | B8 | 0.0145 ± 0.0082
27 | B9 | 0.0332 ± 0.03
28 | B10 | < 0.00928
29 | B11 | 0.015 ± 0.011
30 | B12 | < 0.0211
31 | B13 | 0.00303 ± 0.00075
32 | B14 | 0.0104 ± 0.0053
33 | B15 | < 0.00558
34 | B16 | 0.0151 ± 0.0077
